# Screen size: about 220,000 compounds; about 16,000 (7.3%) were called active. This list was built around the results that the source calls inconclusive (neither active nor inactive); the mix of calls is not that of the screen. Calls come from the whole dose curve; as a rule, active = well fitted inhibition curve with a large enough effect (not every such curve was filed as active); inconclusive = small, poorly fitted or top-dose-only effect, or another doubt; inactive = no such curve, though single readings can be large or run the other way. No potency is given beside an inconclusive call; the fits are too rough.
# Molecular target: Aldehyde dehydrogenase 1A1 (Homo sapiens) (UniProt P00352)
# Test: qHTS Assay for Inhibitors of Aldehyde Dehydrogenase 1 (ALDH1A1);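 for activity, negative = inhibition: plate controls were no enzyme wells and a reference inhibitor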
# Conditions: Purified ALDH1A1, NADH fluorescence, propionaldehyde substrate; series mostly up to 75.3 µM; activity, negative = inhibition: at the top concentration
# Potency is the fitted concentration of half-maximal effect; tags give direction and shape of the fitted curve.
# Chain of UniProt P00352 (P00352 whole entry, looked up): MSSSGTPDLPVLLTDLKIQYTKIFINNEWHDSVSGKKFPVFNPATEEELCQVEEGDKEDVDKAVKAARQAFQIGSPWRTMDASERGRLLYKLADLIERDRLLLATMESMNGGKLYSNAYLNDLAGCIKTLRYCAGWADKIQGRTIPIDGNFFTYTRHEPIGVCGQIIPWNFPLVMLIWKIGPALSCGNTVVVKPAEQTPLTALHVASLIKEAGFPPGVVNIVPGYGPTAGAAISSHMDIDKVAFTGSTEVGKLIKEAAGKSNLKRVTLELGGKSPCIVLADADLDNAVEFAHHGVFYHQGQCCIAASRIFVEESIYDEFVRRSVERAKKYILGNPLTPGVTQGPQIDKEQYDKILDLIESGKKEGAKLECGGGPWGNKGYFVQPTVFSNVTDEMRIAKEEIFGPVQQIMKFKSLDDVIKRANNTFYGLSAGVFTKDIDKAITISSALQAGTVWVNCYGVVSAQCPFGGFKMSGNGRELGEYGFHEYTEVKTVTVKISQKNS
Compound,Potency,"activity, negative = inhibition"
Cc1ccc(N=c2sc(C)c(C)n2C)cc1,"inconclusive [inhibitor, partial curve]",
CCOC(=O)c1ccc(/C=C2/C=C(c3ccccc3)N(c3ccc(Cl)c(C(=O)O)c3)C2=O)cc1,active: 11.2 µM,
CCOC(=O)c1ccc(NC(=O)N2CCN(c3ccccn3)CC2)cc1,"inconclusive [inhibitor, single point]",
Cc1nc(SCCOc2ccc(F)cc2)c2ccccc2n1,"inconclusive [inhibitor, single point]",
Cc1cccc(/C=C(\C(=O)C(=O)O)c2ccc3ccccc3n2)c1,active: 7.94 µM,
CCSc1nc(-c2ccccc2)nc(C(Cl)Cl)n1,,inactive: 7.93%
CCN1C(=O)c2ccc(C(=O)Nc3ncc(C)s3)cc2C1=O,active: 2.24 µM,
O=[N+]([O-])c1ccc2nc(-c3ccccc3)cc(-c3ccccc3)c2c1,,inactive: 10.6%
N#CC(=C1SC=CS1)c1nc(-c2ccccc2)cs1,"inconclusive [inhibitor, full curve]",
CCOC(=O)c1c(C)[nH]c(C(=O)COC(=O)CCS(=O)(=O)c2ccc(C)cc2)c1C,"inconclusive [inhibitor, single point]",
Cc1cc(Br)ccc1OCCCCN1CCCCC1,"inconclusive [inhibitor, partial curve]",
O=C(O)CCSc1nnc(SCC(=O)NCC(F)(F)F)s1,,inactive: -2.05%
CC(C)CNC(=O)NC(=O)COC(=O)C1CSC2(c3ccc(F)cc3)CCC(=O)N12 (centres undefined),"inconclusive [inhibitor, single point]",
N#Cc1cc2cc3c(cc2nc1SCC(=O)OC1CCCCC1)OCO3,"inconclusive [inhibitor, partial curve]",
CC(C)(/C=N/O)/[N+]([O-])=C/C=[N+](\[O-])C(C)(C)/C=N/O,"inconclusive [inhibitor, single point]",
O=C(c1ccc(C(F)(F)F)cc1)C1CCCN(C(=O)CN2CCCC2=O)C1 (centres undefined),"inconclusive [inhibitor, partial curve]",
Nc1ccccc1-c1nc2ccccc2[nH]1,"inconclusive [inhibitor, partial curve]",
Cc1nn(-c2ccc(F)cc2)c2c1cc(C#N)c1nc3ccccc3n12,"inconclusive [inhibitor, full curve, poor fit]",
Cc1cccc(N2C(=O)CC(N3CCN(Cc4ccc5c(c4)OCO5)CC3)C2=O)c1 (centres undefined),active: 22.4 µM,
CC(=O)Nc1cc(ON=C(C)C)cc([N+](=O)[O-])c1,,inactive: -3.82%
Cc1cc(-n2c(C)cc(C(=S)N3CCOCC3)c2C)ccc1Br,active: 11.2 µM,
COC(=O)CNC(=O)C1CCN(c2nc(C)cc(C)n2)CC1,"inconclusive [inhibitor, single point]",
COc1ccc(Cc2nnc(NC(=O)C3CCCO3)s2)cc1 (centres undefined),"inconclusive [inhibitor, single point]",

Compound,Potency,"activity, negative = inhibition"
NNC(=O)c1ccc(N2CCc3ccccc32)c([N+](=O)[O-])c1,active: 1.58 µM,
O=C(NCC1CCCO1)c1sc2ccccc2c1Cl (centres undefined),"inconclusive [inhibitor, single point]",
CCOC(=O)CN1C(=O)N[C@@H](CCc2ccccc2)[C@@H](C(=O)OC)[C@H]1C,,inactive: -0.99% [at 13.5 µM]
CCCCOC(=O)Nc1cc(C(=O)OC)ccc1C(=O)OC,"inconclusive [inhibitor, single point]",
Cc1cc(Nc2c(C)n(C)n(-c3ccccc3)c2=O)n2c(nc3ccccc32)c1C#N,"inconclusive [inhibitor, single point]",
O=C(COc1cccc(NC(=O)c2cccc([N+](=O)[O-])c2)c1)c1ccc(Br)cc1,,inactive: 8.53%
O=C(CCCC1=NS(=O)(=O)c2ccccc2N1)N1CCN(c2ccc(Cl)cc2)CC1,,inactive: 55.5%
CC1CN(C(=O)N2c3ccccc3Sc3ccccc32)CC(C)O1 (centres undefined),,inactive: 5.42%
CCc1c(C)c(C#N)c2nc3ccccc3n2c1-n1nc(C)cc1C,"inconclusive [inhibitor, single point]",
CCc1nc(SCC(=O)O)c(C#N)c2c1CCCC2,"inconclusive [inhibitor, single point]",
CN(C)/C=C(\C#N)C(=O)N/N=C(\CC(=O)C(F)(F)F)c1ccco1,,inactive: -9.26%
CC1=NN(C(=O)c2cccc(Cn3nc(C)c([N+](=O)[O-])c3C)c2)C(O)(C(F)(F)F)C1 (centres undefined),,inactive: -10.4%
O=C(O/N=C(\c1ccccc1)c1ccccn1)c1cccc2ccccc12,"inconclusive [inhibitor, partial curve]",
CCOC(=O)Cc1cc(=O)n2[nH]c(-c3ccc(C)cc3)cc2n1,"inconclusive [inhibitor, single point]",
CCc1[nH]nc2c1C(c1cccc(OC(=O)N3CCOCC3)c1)C(C#N)=C(N)O2 (centres undefined),"inconclusive [inhibitor, single point]",
CC1=CC(C2CC(=O)N(c3ccccc3C)C2=O)CC2C(=O)N(c3ccccc3C)C(=O)C12 (centres undefined),"inconclusive [inhibitor, partial curve, poor fit]",
COC(=O)c1ccc(C2/C(=C(/O)c3ccc(OC)cc3)C(=O)C(=O)N2CC2CCCO2)cc1 (centres undefined),"inconclusive [inhibitor, partial curve]",
COc1ccc(C2CC(=O)Nc3sc(=N)c4c(N)c(C#N)c(N)nc4c32)cc1OC (centres undefined),"inconclusive [inhibitor, single point]",
Cc1nc(NC(=O)c2cccc(-c3cc4ccccc4oc3=O)c2)ccc1Br,"inconclusive [inhibitor, single point]",
Cc1cc(C)c(C#N)c(SCS(=O)Cc2ccc(Cl)cc2)n1 (centres undefined),"inconclusive [inhibitor, partial curve]",
O=C(COc1cccnc1[N+](=O)[O-])Nc1ccc(Cl)c(S(=O)(=O)N2CCOCC2)c1,active: 14.1 µM,
Cc1ccccc1-n1c(SCc2cc(=O)n3ccccc3n2)nc2[nH]ncc2c1=O,"inconclusive [inhibitor, single point]",
CC(C)C1O/C(=N/C(=O)Nc2ccc(Cl)c(Cl)c2)NC1=O (centres undefined),"inconclusive [inhibitor, partial curve, poor fit]",

Compound,Potency,"activity, negative = inhibition"
Cc1ccc(-c2nc3c(c(=O)[nH]c(=O)n3Cc3ccccc3)n2C)o1,"inconclusive [inhibitor, full curve]",
CCOC(=O)C1CN(S(=O)(=O)c2cccc(C(F)(F)F)c2)c2cc(CC(=O)OC)ccc2O1 (centres undefined),"inconclusive [inhibitor, full curve, poor fit]",
CC(C)CCn1cnc2c(cnn2-c2ccc(Cl)cc2)c1=O,"inconclusive [inhibitor, single point]",
O=C(NCCN1CCOCC1)c1cn(CCc2ccccc2)nn1,,inactive: -1.6%
O=C(CSc1ncn[nH]1)Nc1ncc(C(F)(F)F)cc1Cl,,inactive: -5.04%
CCCCCC(=O)Nc1ccc(-c2csc(C)n2)cc1,"inconclusive [inhibitor, single point]",
CC(C)(C)NS(=O)(=O)c1cccc(S(=O)(=O)c2cccc(S(=O)(=O)NC(C)(C)C)c2)c1,,inactive: 4.52%
COc1ccc(-c2cc(C(=O)OCC(=O)NC(C)C)c3ccccc3n2)cc1,"inconclusive [inhibitor, partial curve]",
CCCCC(CC)C(=O)Nc1ccc(Nc2ccccc2)cc1 (centres undefined),"inconclusive [inhibitor, single point]",
CCOC(=O)c1c(NC(=O)c2ccc(N3C(=O)[C@@H]4[C@H](C3=O)[C@H]3C=C[C@@H]4C3)cc2)sc2c1CCCC2,"inconclusive [inhibitor, single point]",
CCN(CC)CCN(Cc1cc2cc3c(cc2[nH]c1=O)OCCO3)C(=S)NCC1CCCO1 (centres undefined),"inconclusive [inhibitor, partial curve]",
Cc1cc(C)c[n+](-c2[nH]c(=O)sc2/C=N/N=C(\N)[S-])c1,"inconclusive [inhibitor, single point]",
Cc1cc2c(cc1C)NC(c1c(C)n(C)n(-c3ccccc3)c1=O)C1=C(CC(C)(C)CC1=O)N2 (centres undefined),active: 22.4 µM,
COc1ccc(N2C(=O)CC(N3CCN(C4CCc5ccccc5C4)CC3)C2=O)cc1 (centres undefined),"inconclusive [inhibitor, single point]",
Cc1c(C(=O)OC2CCCCC2)sc2nc[nH]c(=O)c12,"inconclusive [inhibitor, single point]",
CCOc1ccc(-n2nnnc2SCC(=O)c2ccccc2)cc1,,inactive: -8.73%
COc1ccc(N2CCN(C(CNC(=O)C(=O)NCCc3c[nH]c4ccccc34)c3ccco3)CC2)cc1 (centres undefined),,inactive: -2.7%
O=C(CN1CCN(c2cccc(Cl)n2)CC1)N1CC(O)CO1 (centres undefined),"inconclusive [inhibitor, single point]",
Cc1ccccc1-c1ccc(=O)n(CC(=O)Nc2ccc(N3CCOCC3)cc2)n1,,inactive: -0.929%
Oc1ccc(CNc2ccccc2O)cc1,active: 3.98 µM,
CN(C)C(/C=C/Nc1cccc([N+](=O)[O-])c1)=C(C#N)C#N,"inconclusive [inhibitor, single point]",
COCC(=O)O[C@]1(CCN(C)CCCc2nc3ccccc3[nH]2)CCc2cc(F)ccc2[C@@H]1C(C)C,inactive,
CCc1ccc(N2C(=O)CC(Cn3nc(C)cc3C)C2=O)cc1 (centres undefined),,inactive: 5.29%
